# Paper PMC4336329 (PLoS ONE, 2015)
# Screen size: about 310,000 compounds; about 2,200 (0.71%) showed an effect of 50% or more. The effect is printed as a negative number. This is one part of the list.
# Target: human ether-à-go-go-related gene (hERG) potassium channel (human, UniProt Q12809)
# Experiment: primary screen, population patch clamp on CHO cells stably expressing hERG
# Sequence of human ether-à-go-go-related gene (hERG) potassium channel (Q12809 whole entry, looked up): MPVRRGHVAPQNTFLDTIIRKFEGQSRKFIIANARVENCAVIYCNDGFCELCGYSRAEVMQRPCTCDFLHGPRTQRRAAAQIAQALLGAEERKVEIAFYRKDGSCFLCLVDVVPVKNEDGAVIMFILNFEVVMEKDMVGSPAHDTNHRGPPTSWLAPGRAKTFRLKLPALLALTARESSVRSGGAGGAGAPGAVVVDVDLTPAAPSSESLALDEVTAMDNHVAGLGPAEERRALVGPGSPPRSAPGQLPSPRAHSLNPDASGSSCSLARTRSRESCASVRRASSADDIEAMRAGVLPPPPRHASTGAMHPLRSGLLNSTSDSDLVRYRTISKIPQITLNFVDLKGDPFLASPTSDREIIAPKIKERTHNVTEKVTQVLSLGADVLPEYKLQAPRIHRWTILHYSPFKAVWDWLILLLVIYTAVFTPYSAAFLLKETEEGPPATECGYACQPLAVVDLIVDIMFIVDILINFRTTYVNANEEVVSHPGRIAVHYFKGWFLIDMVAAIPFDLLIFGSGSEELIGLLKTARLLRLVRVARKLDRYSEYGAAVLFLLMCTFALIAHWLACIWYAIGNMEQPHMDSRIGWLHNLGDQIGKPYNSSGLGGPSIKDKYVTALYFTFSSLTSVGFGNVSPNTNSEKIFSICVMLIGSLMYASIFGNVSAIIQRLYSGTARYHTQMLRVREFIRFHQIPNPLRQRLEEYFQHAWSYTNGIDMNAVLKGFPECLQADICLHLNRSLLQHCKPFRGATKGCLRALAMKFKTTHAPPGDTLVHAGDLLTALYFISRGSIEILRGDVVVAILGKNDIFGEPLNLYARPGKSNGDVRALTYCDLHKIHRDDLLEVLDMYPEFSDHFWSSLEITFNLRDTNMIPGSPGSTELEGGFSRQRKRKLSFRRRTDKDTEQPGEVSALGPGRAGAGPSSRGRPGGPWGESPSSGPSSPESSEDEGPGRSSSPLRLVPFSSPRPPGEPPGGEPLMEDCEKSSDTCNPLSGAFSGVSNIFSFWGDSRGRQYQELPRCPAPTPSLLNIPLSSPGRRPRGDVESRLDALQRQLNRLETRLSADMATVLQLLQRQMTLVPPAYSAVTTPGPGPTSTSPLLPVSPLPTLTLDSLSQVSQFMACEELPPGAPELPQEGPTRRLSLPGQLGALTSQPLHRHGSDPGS
row,SMILES,"hERG current change (%, negative = inhibition) at 1uM [%]"
1,COc1ccc(NC(=O)N[C@@H](CCSC)C(=O)O)cc1Cl,-7.84
2,CN(C)c1ccc(S(=O)(=O)N2CCCCC2)cc1NC(=O)C1=NN(c2ccccc2)C(=O)CC1,1.1
3,Cc1ccc(-c2cc(C(=O)OCn3nnc4ccccc4c3=O)c3ccccc3n2)cc1,15.9
4,CCOC(=O)C1CCN(C(=O)C2CCN(S(=O)(=O)c3cc(Cl)ccc3OCC)CC2)CC1,16.6
5,Cc1ccc2[nH]c(=O)c3cc(C(=O)N(C)C4CCCCC4)sc3c2c1,21.5
6,Cc1nn(-c2ccc(N3CCOCC3)nn2)c(C)c1CCC(=O)Nc1ccccc1,8.09
7,CC(C)C(NC(=S)Nc1ccccc1)C(=O)O (stereo not shown),9.14
8,COCCCN(C(=O)Cn1ncc2c(=O)oc3ccc(C)cc3c21)C(C)c1ccncc1 (stereo not shown),0.794
9,COC(=O)c1ccc(NC(=O)Cn2nnc(-c3cccs3)n2)cc1,13.1
10,O=C(N/N=C/c1ccc(O)cc1)Nc1cccc2nsnc12,12.8
11,Cc1c(Cl)cccc1NC(=S)NCc1ccc2c(c1)OCO2,7.62
12,O=C(CN(C(=O)c1csnn1)c1ccc(Br)cc1)NC1CCCC1,5.09
13,Oc1ccc(/C=N/Nc2ncnc3c2ncn3Cc2ccccc2)cc1O,7.4
14,Fc1cccc(Cl)c1C1Nc2cccc3cccc(c23)N1,6.56
15,O=C(N/C(=C\c1ccc(Br)cc1)C(=O)N1CCOCC1)c1ccc([N+](=O)[O-])cc1,-81.6
16,CC(C)(C)NC(=O)CN(Cc1ccc2c(c1)OCO2)C(=O)CNS(=O)(=O)c1ccc(F)cc1,12.9
17,COC(=O)c1cc2n(n1)CCN(Cc1ccccc1F)C2=O,5.99
18,CC1Cc2ccccc2N1C(=O)Cn1nc(C(=O)O)c2ccccc2c1=O (stereo not shown),7.67
19,Cc1cc(=O)[nH]c(N/N=C/c2ccc(OC(=O)c3cccnc3)cc2)n1,7.54
20,CSC(=NC#N)N1CCN(c2ccccn2)CC1,8.36
21,Cc1ccccc1NC(=O)C1CCC(=O)N1 (stereo not shown),10.3
22,COc1ccc(C2(C(=O)Nc3ccc(C)cc3)CCOCC2)cc1,13.9

row,SMILES,"hERG current change (%, negative = inhibition) at 1uM [%]"
1,COc1ccc(S(=O)(=O)N2CCC(C(=O)NCCCN3CCOCC3)CC2)cc1,0.202
2,CC(C)CN(C(=O)c1cccc(S(=O)(=O)N2CCN(c3ccc(F)cc3)CC2)c1)C1CCS(=O)(=O)C1 (stereo not shown),8.49
3,Cc1ccc(Sc2cc(Cl)nc(N)n2)cc1,12.1
4,CC(=O)Nc1nc2cccc([N+](=O)[O-])c2s1,13.4
5,O=C(COC(=O)C1=Cc2ccccc2OC1)NCc1ccccc1,4.1
6,COc1ccc(Cl)cc1NC(=S)N1CCN(S(C)(=O)=O)CC1,2.35
7,O=C1CC(=O)N(c2ccc(Cl)cc2)C(=O)N1,17.1
8,O=C(CSc1ccccn1)Nc1ccc2ccccc2c1,3.68
9,CCCN1CCCc2cc(CN(CCCN3CCOCC3)C(=O)Nc3ccc(OCC)cc3)ccc21,0.472
10,COc1cccc(NC(=O)C(Sc2nc3ccccc3c(=O)n2CC(C)C)c2ccccc2)c1 (stereo not shown),6.46
11,OCC[C@H]1C[C@H](O)[C@@H](O)[C@@]2(CCCCO2)O1,22
12,O=C(Nc1cccc(-c2nc3ncccc3o2)c1)c1ccccc1,8.32
13,COc1ccc(N2CCN(S(=O)(=O)c3ccc(OC)c(C(=O)N4CCCC4)c3)CC2)cc1,11.4
14,O=C(NCCc1ccccc1)c1c[nH]c2c(F)cccc2c1=O,17.6
15,CCCn1c(N)c(N(CCOC)C(=O)c2cc3c(s2)CCCCC3)c(=O)[nH]c1=O,4.22
16,COc1ccc(N(C(=O)c2ccccc2)S(=O)(=O)c2cccs2)cc1,20.8
17,CSCC[C@H](NC(=O)OCc1ccccc1)C(=O)O,6.64
18,COC(=O)CNC(=O)c1cc(OC)cc(OC)c1,12.9
19,O=C(Cn1nc(Cc2cccnc2)c2ccccc2c1=O)Nc1ccccc1F,7.93
20,CCN(CC)S(=O)(=O)c1cccc(NC(=O)COC(=O)c2cc(=O)c3ccccc3o2)c1,7.42
21,Cc1cccc(C)c1NC(=O)CNC(=O)c1ccc(COc2ccccc2)cc1,10.7
22,COc1ccc(N=Nc2nc3cc(Br)c(Br)cc3n2C)c(OC)c1,1.6

row,SMILES,"hERG current change (%, negative = inhibition) at 1uM [%]"
1,O=S(=O)(c1cccnc1)N1CCn2cccc2C1c1ccccc1F (stereo not shown),8.59
2,COc1ccc(N2CCN(C(=O)CCNC(=O)c3ccc(C(C)(C)C)cc3)CC2)cc1,5.7
3,Cc1ccc(SCc2c(C(=O)N/N=C/c3ccncc3)nnn2-c2nonc2N)cc1,23
4,Cc1cc(C)n(-c2ccc(C(=O)Nc3cc(C(F)(F)F)ccc3N3CCOCC3)cc2)n1,10.8
5,C/C(=N/NC(=O)c1ccc(Br)o1)c1cccc(NC(=O)c2ccc(C)o2)c1,-58
6,CCN(CCO)c1nc(NCc2ccccc2)c2cnn(C)c2n1,9.25
7,COC(=O)c1nn(-c2ccc3c(c2)CCN3C(C)=O)cc1O,10.1
8,CCCC(=O)Nc1ccc(C(=O)N/N=C/c2ccc([N+](=O)[O-])o2)cc1,15.1
9,Cc1ccc(-n2c(=O)c3sccc3n(CC(=O)NCc3ccco3)c2=O)cc1,6.71
10,CCCCn1c(SCC(=O)NC2CC2)nc2ccccc2c1=O,1.37
11,CCn1c(SCC(=O)NCc2ccccc2)nnc1C(CO)NC(=O)c1ccccc1 (stereo not shown),11.3
12,CCOC(=O)c1c(-c2ccc(C)o2)csc1NC(=S)NC(=O)N(C)C,3.27
13,CCOCCCNC(=O)COC(=O)/C=C/c1ccc(S(=O)(=O)N2CCc3ccccc32)cc1,21.7
14,C#CCOCCOCCOCCNc1nc(N2CCOCC2)nc(N2CCN(C(=O)[C@H]([C@@H](C)CC)n3cc([C@@H](N)Cc4ccc(O)cc4)nn3)CC2)n1.Cl,4.49
15,C=CCSc1nc2c(c(=O)[nH]1)C(C(C)C)C(C#N)=C(N)O2 (stereo not shown),6.29
16,COc1cc(C(=O)NCC(=O)OCCN2C(=O)c3ccccc3C2=O)cc(OC)c1OC,2.5
17,Cc1ccc(S(=O)(=O)CC(=O)N2CCCCCC2)cc1,8.52
18,C/C(=N\Nc1cc(Cl)nc(C)n1)c1ccc(C)cc1,8.72
19,O=C(CN(C(=O)CNS(=O)(=O)c1ccccc1)c1ccc2c(c1)OCCO2)NC1CCCCC1,10.8
20,CCOC(=O)N1CCC(Nc2cccc(SC)c2)CC1,11.3
21,CCCCNC(=O)CCCCCNS(=O)(=O)c1ccc(Br)cc1,-26.3
22,O=S(=O)(N/N=C/c1ccc(Cl)cc1)c1ccc(Cc2ncc(C(F)(F)F)cc2Cl)s1,10.1

row,SMILES,"hERG current change (%, negative = inhibition) at 1uM [%]"
1,CC[n+]1ccc(/C=C2\Sc3ccccc3N2CCCS(=O)(=O)[O-])c2ccccc21,13.6
2,Cc1cccnc1NC(=O)c1ccc2nc(N)sc2c1,12.3
3,C=CCN1C(=O)c2ccccc2Sc2ccc(C(=O)NC(C)C)cc21,17.6
4,O=C(CSc1ncnc2sccc12)Nc1ccccc1,37.3
5,CCCCn1c(N)c(N(CCC(C)C)C(=O)COC(=O)c2ccccc2)c(=O)[nH]c1=O,8.04
6,CN(c1ccc(C(=O)N2CCN(c3ccc(F)cc3)CC2)cc1)S(C)(=O)=O,-9.3
7,O=C(NCc1ccccn1)C1CCCCC1,6.06
8,CCOC(=O)C[C@H]1c2cc(F)ccc2S(=O)(=O)N1C1CCCC1,3.05
9,CC12CN3CCN(CC(C3)C1O)C2 (stereo not shown),8.93
10,CCCCn1c(=O)n(CC(=O)Nc2c(CC)cccc2CC)c(=O)c2c1nc(CO)n2CCC,2.58
11,CCOC(=O)c1sc(NC(=O)CSc2nnc(C(C)C)n2CC)nc1C,9.17
12,COc1cc(C2SCC(=O)N2CCN2CCCCC2)ccc1O.Cl (stereo not shown),20
13,Cc1ccc(OCC(=O)N(Cc2ccco2)C2CCS(=O)(=O)C2)cc1 (stereo not shown),6.27
14,COc1cccc(C2C(C#N)=C(N)Oc3cc(N)ccc32)c1OC (stereo not shown),0.209
15,COc1ccc(C(=O)c2ccc(OC)c(Br)c2)cc1Br,11.2
16,O=C(NNC(=S)NC(=O)c1ccccc1)c1cccc([N+](=O)[O-])c1,9.19
17,NC(=O)CSc1nnc(-c2ccco2)n1-c1ccccc1,9.97
18,NC(=O)CC(NC(=O)Cc1cccc2ccccc12)c1ccc(NCCc2ccc(F)cc2)c([N+](=O)[O-])c1 (stereo not shown),6.61
19,COc1ccc(Cl)cc1NC(=O)NC(C)c1ccncc1 (stereo not shown),8.6
20,c1ccc2[nH]c(CCNC3CCCCC3)nc2c1,-1
21,C=C(C)CC(NCc1ccco1)c1ccc(OC)cc1 (stereo not shown),7.21
22,O=C(c1ccccc1)c1ccccc1C(=O)N1CCOCC1,15.2
